SMILES strings stand for the structures.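 How tested: cells in 96-well plates exposed to compound for 48 hours at five concentrations. The concentration for 50% growth inhibition is given as GI50. TGI marks complete inhibition of growth.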

The subject of this experiment is NCI-H322M lung. In words: NCI tumour cell line growth inhibition, 48 h.
Molecule `COc1cc(CCCOC2OC(COC3OCC(O)C(O)C3O)C(O)C(O)C2O)cc2cc(-c3ccc4c(c3)OCO4)oc12` (stereo not given) registered a TGI of over 175 µM.

The molecule `CC[P+](C#Cc1ccccc1)(c1ccccc1)c1ccccc1` yielded a TGI of 9.79 µM. Same read-out and setting: for `NC1=NC(=O)C(CC(=O)Nc2ccc([N+](=O)[O-])cc2[N+](=O)[O-])S1` (stereo not given) the value was over 100 µM; for `O=C1NC(=S)S/C1=C/c1ccco1`, over 100 µM; for `CC1(C)OC(CCO)CN1C(=O)OCc1ccccc1` (stereo not given), over 100 µM.

As to `CC/C=C\C/C=C\C/C=C\CCCCCCCC(=O)OC(COC(=O)CCCCCCCCCCCCCCCCC)COC1OC(CO)C(O)C(O)C1O` (stereo not given), the TGI was over 25 µM. In the case of `COc1ccc(C2C(C#N)=C(N)OC3=C2CCCc2ccc(F)cc23)cc1OC` (stereo not given), the GI50 was 22.2 µM and the TGI is 47.3 µM. In turn, `CC1(C)OC(=O)C=C([O-])O1.CC1(C)OC(=O)C=C([O-])O1.O=c1c(O)c(-c2ccc([O-])cc2[O-])oc2cc(O)cc(O)c12.[Ti+4]` displayed a TGI of over 100 µM.

Molecule `COC(=O)c1cc2c3c(cc(NCCN)c2[nH]1)N(C(=O)c1cc2cc(OC)c(OC)c(OC)c2[nH]1)CC3CCl` (stereo not given) yielded a TGI of 0.606 µM.

In turn, `CC(O)(C(=O)N(O)c1ccc(Cl)cc1)c1ccc(Cl)cc1` (stereo not given) displayed a TGI of over 100 µM. `Brc1ccc2c(c1)-c1nc3c(cc1CC2)CCc1ccc(Br)cc1-3` had a TGI of over 100 µM.

`O=c1c2ccccc2c2c3c1cccc3c1cccc3c(=O)c4ccccc4c2c31` registered a TGI of over 100 µM. `CCOC(=O)C(NC(=O)c1ccc(N=NN(C)C)cc1)C(C)C` (stereo not given) gave a TGI of over 100 µM.

As for `CCN(CC)C(=S)SS(=O)(=O)c1ccc(C)cc1`, the TGI was over 100 µM. Regarding `O=C(NCCCNCCCCNCCCNC(=O)C(F)(F)F)C(F)(F)F`, the TGI was over 100 µM. Molecule `O=C1N[C@@H](O)[C@@H]2ON=C(c3ccccc3)[C@H]12` yielded a TGI of over 100 µM.

With `O=C(NN1C(=O)CSC1c1ccc(Cl)c(Cl)c1)c1ccncc1` (stereo not given), the TGI was over 100 µM. In turn, `NS(=O)(=O)c1nnc(NSc2ccc([N+](=O)[O-])cc2)s1` came in with a TGI of over 100 µM. The same measure, in the same setting: for `CCOC(=O)C(C)NC(=O)N(C)C12CC3CC(CC(C3)C1)C2` (stereo not given) the value was over 500 µM. `NC(CCSCC(F)F)C(=O)O` (stereo not given) displayed a TGI of over 100 µM. For `CCn1c(-c2nonc2N)nc2ccc(F)cc21`, the GI50 was over 25 µM and the TGI was over 25 µM. Consider `Oc1c2c(c(O)c3ccccc13)=N[C@@H](c1ccccc1)[C@H](c1ccccc1)N=2`, for which the TGI is over 100 µM. In the case of `CCN(CCO)CCNc1ccc(C)c2sc3cc(Cl)ccc3c(=O)c12`, the GI50 was 1.5 µM and the TGI was determined as 3.14 µM. For `CCN(CC)CCCNc1ccc([N+](=O)[O-])c2nc3ccc(OC)cc3c(NCCCN(CC)CC)c12`, the TGI is 3.08 µM. `Oc1c(Br)cc(CN(Cc2cc(Br)c(O)c(Br)c2)C2CCCCC2)cc1Br` yielded a TGI of over 100 µM. Turning to `O=c1c2cc3c(=O)n(CCc4ccccc4CO)c(=O)c3cc2c(=O)n1CCc1ccccc1CO`, the TGI was over 100 µM. Consider `COc1cc(/C=C/c2cc(=O)cc(/C=C/c3ccc(O)c(OC)c3)o2)ccc1O`, for which the TGI was over 100 µM. Molecule `Nc1n[nH]c2ccccc12` had a TGI of over 100 µM. For the molecule `CC1=C(C)C(=O)O[C@@H]([C@](C)(O)[C@]2(O)CC[C@@]3(O)[C@@H]4C[C@H]5O[C@]56CC=CC(=O)[C@]6(C)[C@H]4CC[C@]23C)C1`, the GI50 is 0.44 µM and the TGI came to 3.81 µM. On to `CC(=O)[CH-]C(C)=O.CC(=O)[CH-]C(C)=O.N=CC=N.[Sn+2]`, for which the GI50 was 10.8 µM and the TGI came to 23 µM.

Regarding `NCCN1CCN(c2nccc(-c3ccc4ccccc4c3)n2)CC1`, the GI50 was 2.07 µM and the TGI stood at 4.99 µM. Consider `C[C@H]1CCC/C=C/[C@@H]2C[C@H](N)C[C@H]2[C@H](O)/C=C/C(=O)O1`, for which the GI50 was over 100 µM and the TGI was over 100 µM. For `CCCSc1cc(Cl)nc(N)n1`, the GI50 was over 100 µM and the TGI was over 100 µM. On to `C=C(C)[C@@H]1CC[C@@]2(C(=O)O)CC[C@]3(C)C(CCC4[C@@]5(C)CCC(OS(=O)(=O)c6ccccc6)C(C)(C)C5CC[C@]43C)C12` (stereo not given in full), for which the GI50 is 4.91 µM and the TGI stood at 24.2 µM.

With `CCOC(=O)Cc1nc(/C(C#N)=C/c2ccco2)[nH]c(=O)c1C#N`, the TGI is over 100 µM.

With `CCN(CC(=O)O)CC(=O)O`, the TGI was over 100 µM.

`CC12CCC(C/C1=N\NC(N)=O)C2(C)C` (stereo not given) had a TGI of over 100 µM. Same read-out and setting: for `FC(F)=C(c1ccc(-c2ccc(Cl)cc2)cc1)C(F)(F)F` the value was 34.8 µM. The molecule `N/C(CSCCSC/C(N)=N/O)=N\O` showed a TGI of over 100 µM.

`COc1ccccc1C(=O)c1ccc2ccccc2c1`: the TGI was over 100 µM. The same measure, in the same setting: the same measure for `CCNC(=S)N/N=C/c1ccccn1`: over 100 µM; for `Cc1ccc2c(c1)C(=O)/C(=C\c1ccc(Cl)cc1)CCS2(=O)=O`: 14 µM; for `CC(O)CN1C(=O)NC(Cc2ccccc2)C1=O` (stereo not given): over 100 µM. The molecule `C/C(=N\Nc1nc2ccccc2s1)c1cccnn1` had a TGI of over 100 µM. Turning to `COc1ccc(-c2cc(-c3cc(Cl)ccc3Cl)nc3nc(=S)[nH]c(N)c23)cc1`, the GI50 is 42.1 µM and the TGI was over 100 µM.

Values taken from PubChem BioAssay (NCI).
